Reference: PMC4336329 (PLoS ONE, 2015)
Out of some 310,000 compounds screened, about 2,200 (0.71%) showed an effect of 50% or more. The effect is printed as a negative number. This is one part of the list.

target: human ether-à-go-go-related gene (hERG) potassium channel (human, UniProt Q12809); test: primary screen, population patch clamp on CHO cells stably expressing hERG
Sequence (Q12809 whole entry, looked up): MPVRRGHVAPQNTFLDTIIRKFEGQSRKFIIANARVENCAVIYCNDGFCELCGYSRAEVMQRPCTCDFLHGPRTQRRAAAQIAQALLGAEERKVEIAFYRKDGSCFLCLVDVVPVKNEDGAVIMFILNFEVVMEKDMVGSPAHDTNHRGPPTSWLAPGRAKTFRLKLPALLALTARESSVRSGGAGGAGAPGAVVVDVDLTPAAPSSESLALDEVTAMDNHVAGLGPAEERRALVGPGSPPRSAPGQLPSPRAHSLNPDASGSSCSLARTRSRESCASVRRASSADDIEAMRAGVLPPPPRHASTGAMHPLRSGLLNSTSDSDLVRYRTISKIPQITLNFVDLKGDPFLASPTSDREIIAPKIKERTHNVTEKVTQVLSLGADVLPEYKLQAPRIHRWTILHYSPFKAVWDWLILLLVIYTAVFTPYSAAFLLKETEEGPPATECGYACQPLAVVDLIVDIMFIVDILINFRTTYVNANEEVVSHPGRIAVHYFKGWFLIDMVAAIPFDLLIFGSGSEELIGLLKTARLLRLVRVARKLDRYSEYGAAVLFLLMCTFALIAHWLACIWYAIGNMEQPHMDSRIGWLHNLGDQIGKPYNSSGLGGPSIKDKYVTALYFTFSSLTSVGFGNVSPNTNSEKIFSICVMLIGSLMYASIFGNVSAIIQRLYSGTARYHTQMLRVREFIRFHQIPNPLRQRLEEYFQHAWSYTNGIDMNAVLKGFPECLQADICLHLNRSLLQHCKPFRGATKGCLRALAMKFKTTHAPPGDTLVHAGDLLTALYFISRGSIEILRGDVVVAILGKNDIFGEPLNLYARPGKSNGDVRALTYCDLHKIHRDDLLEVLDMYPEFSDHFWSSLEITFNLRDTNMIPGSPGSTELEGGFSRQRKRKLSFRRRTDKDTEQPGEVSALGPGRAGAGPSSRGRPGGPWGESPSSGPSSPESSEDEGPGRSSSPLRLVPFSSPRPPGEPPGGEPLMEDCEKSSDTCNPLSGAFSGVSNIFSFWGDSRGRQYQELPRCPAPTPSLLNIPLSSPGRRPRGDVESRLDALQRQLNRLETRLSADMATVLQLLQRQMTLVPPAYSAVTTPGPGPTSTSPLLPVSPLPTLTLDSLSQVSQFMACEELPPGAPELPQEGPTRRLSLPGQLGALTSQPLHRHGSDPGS

Compound | hERG current change (%, negative = inhibition) at 1uM
COc1ccc(C(=O)NCc2ccccc2OC)c(OC)c1 | 0.756%
COc1cc(OC)c(C2SCCCS2)cc1OC | 11.1%
O=C(CCCOc1ccc(Cl)cc1Cl)NCc1ccccn1 | 6.21%
Cn1c(CCN2CCCCC2)nc2cc(NC(=O)C3CCCCC3)ccc21 | -25.9%
CN(CC(=O)NCC1CCCO1)S(=O)(=O)c1ccc(Br)cc1 (centres unmarked) | 4.17%
Cc1ccc(SCC(=O)OCC(=O)N(C)CC(=O)Nc2ccc(F)cc2)cc1 | 1.19%
Cc1nc2ccccn2c1C(=O)NN=C1CCN(C)CC1 | 13.6%
COC(=O)c1sc2nc3c(cc2c1N)CCCC3 | 13.7%
Cc1cc(=O)c(C(=O)Nc2cccc(C(=O)NC3CC3)c2)nn1-c1ccccc1Cl | 2.21%
C=CCNC(=O)Nc1cc(Cl)ccc1OC | 13.3%
CCN(Cc1nc(-c2ccc(Cl)cc2)no1)CC1CCCO1 (centres unmarked) | -8.78%
O=C(NNC(=S)Nc1ccccc1C(F)(F)F)c1ccc(Br)o1 | 7.31%
COC(=O)c1nc(N)sc1-c1ccccc1 | 9.7%
CCn1ccc(C(=O)NC2C(=O)N3C(C(=O)O)=C(C)CSC23)n1 (centres unmarked) | 5.82%
Cc1ccc(NC(=O)c2noc3c2CCCCC3)cc1C | -1.11%
CCOc1ccc(/C(O)=C2/C(=O)C(=O)N(CCCN3CCOCC3)C2c2ccc(C)cc2)cc1C (centres unmarked) | 21.2%
O=C(O)c1ncsc1-c1ccccc1 | 5.87%
CN(C)c1ccc(C=Nc2ccc(N(C)C)cc2)cc1 | 2.42%
CCOc1cc(C)c(Cl)cc1S(=O)(=O)N(CC)CC | 8.55%
CCCNC(=O)Cn1c(=O)/c(=C\c2ccc(-c3cccc([N+](=O)[O-])c3)o2)s/c1=C\C(=O)C(C)(C)C | 10.5%
O=C(CN(Cc1ccccc1F)S(=O)(=O)c1ccc(Cl)cc1)NCCCO | -2.78%
Cc1c(OC(C)C(=O)NCCN2CCOCC2)ccc2c3c(c(=O)oc12)CCCC3 (centres unmarked) | 6.74%

Compound | hERG current change (%, negative = inhibition) at 1uM
COc1ccc(Oc2cccc(Cl)c2CNC(=O)CCC(=O)O)cc1 | 5.82%
CCOc1cc(-c2conc2N)cc(OCC)c1OCC | -7.78%
CCOC(=O)/C=C1\Nc2ccccc2SC1=O | -3.13%
CCOCCCNC(=O)/C(C#N)=C/c1ccc(Cl)c([N+](=O)[O-])c1 | 7.63%
Cc1oc2c(C)c3oc(=O)c(CCC(=O)NCCCn4ccnc4)c(C)c3cc2c1C | -3.28%
CCCOc1cc(N(CC)CC)ccc1/C=C(/C#N)c1nc2ccc(C)cc2[nH]1 | 11.6%
CCCc1cc(=O)[nH]c(SCCOc2ccc(OCC)cc2)n1 | 11.7%
Cc1ccc2c(cnn2C(=O)CCC(=O)N2CCCCC2)c1 | 8.66%
Cc1ccc(C(=O)N/C(=C/c2ccc(N(C)C)cc2)C(=O)NCC2CCCO2)cc1 (centres unmarked) | 15.3%
Cc1ccc(C(=O)NC(N(C)C)C(Cl)(Cl)Cl)cc1 (centres unmarked) | 1.94%
COc1ccc(S(=O)(=O)N2CCC(C(=O)NCC(c3cccs3)N(C)C)CC2)cc1 (centres unmarked) | -0.883%
CCCCc1ncc(CN2CCC(n3nccc3NC(=O)c3ccccc3Cl)CC2)[nH]1 | 5.37%
COCC(=O)Nc1nc(-c2ccc(-c3ccccc3)cc2)cs1 | 15.1%
CC(C)(C)n1cc(S(=O)(=O)c2ccccc2)[nH]c1=O | 14.3%
COc1ccc([N+](=O)[O-])cc1N(CC(O)CN1CCOCC1)S(=O)(=O)c1ccccc1 (centres unmarked) | 16.2%
COc1ccc(C2CC(c3cccs3)=Nc3ccccc3S2)cc1OC (centres unmarked) | 6.82%
Cl.OC(c1ccc(F)cc1)C(c1ccccc1)N1CCOCC1 (centres unmarked) | 11.4%
COC(=O)c1oc2ccc(Br)cc2c1NC(C)=O | 15.2%
N#Cc1cc2c([nH]c1=S)CCCCCC2 | 14.1%
COc1ccc(N2C(=O)C3C(c4ccc(OC)cc4O)NC(Cc4ccccc4)(C(=O)O)C3C2=O)cc1 (centres unmarked) | 6.55%
N#Cc1c(N2CCOCC2)nsc1-c1ccc(C(F)(F)F)cc1 | 7.94%
O=C(CSc1nc(C2CC2)n(-c2ccccc2)n1)NCc1ccco1 | -3.27%
